# From ChEMBL document CHEMBL1157539, “Thousands of chemical starting points for antimalarial lead identification” (Nature, 2010)
# Where “and” joins values, the source holds several entries; their conditions need not be identical. Equal values may be shown once. In all, about 13,000 compounds were measured (“IFI”: median about 4, highest 2% from about 17 on). The list shows a part of the results.
# Experiment: GSK_TCMDC: Inhibition Frequency Index (IFI). The number of non-kinase HTS assays where a compound showed > 50 % inhibition, expressed as a percentage of the number of such assays in which the compound was tested (-0 is zero)
# Type: functional
row,SMILES,IFI
1,C=Cc1cc(OC)c2c(c1)c(=O)oc1c2cc(OC)c2c(O)ccc([C@H]3O[C@H]([C@H](C)O)[C@H](O)[C@H]3O)c21,10.7%
2,COC(=O)c1ccc(CC(C)NCC(O)c2cccc3ccccc23)cc1 (stereo not given),1.47%
3,COc1ccc(C[C@H]2NC[C@H](O)[C@H]2OC(C)=O)cc1,8.51%
4,Cc1ccc(CC(C)NCC(O)c2cccc([N+](=O)[O-])c2)cc1 (stereo not given),2.96%
5,COCCNCc1cccc(-c2ccc(CN(C(=O)NC3CCCCC3)C3CCN(Cc4ccccc4)CC3)cc2)c1,6.87%
6,COC(=O)/C=C/c1ccc(CC(C)NCC(O)c2cccc(C(F)(F)F)c2)cc1 (stereo not given),5.07% and 6.72%
7,O=C(NC1CCC(CN2CCC(c3c[nH]c4ccccc34)CC2)CC1)c1ccc(-c2ccccc2[N+](=O)[O-])o1 (stereo not given),5.3%
8,CCOC(C(=O)OCC1CCCN1C)(c1ccccc1)c1ccccc1 (stereo not given),2.19%
9,c1ccc2c(NCCCCCCNc3c4c(nc5ccccc35)CCCC4)c3c(nc2c1)CCCC3,10.5%
10,CN(c1cc(NC(=O)c2cccs2)ccn1)C1CCN(Cc2ccccc2)CC1,2.78%
11,CC[C@H]1CN2CCc3cc(OC)c(OC)cc3[C@@H]2C[C@@H]1C[C@H]1NCCc2cc(OC)c(OC)cc21,9.86%
12,COc1ccc(CC(C)NCC(O)c2cccc(Br)c2)cc1 (stereo not given),5.07%
13,Cc1[nH]c2ccc([N+](=O)[O-])cc2c1C1=CCN(C)CC1,2.03%
14,CCC1CN2CCc3cc(OC)c(OC)cc3C2CC1CC1NCCc2c1[nH]c1ccc(O)cc21 (stereo not given),11.1%
15,CC[C@@]1(O)C(=O)OCc2c1cc1n(c2=O)Cc2c-1nc1cc3c(cc1c2CN1CCOCC1)OCO3,6.43%
16,O=C(Nc1ccccc1OC(F)(F)F)NC1CCC(CN2CCC(c3c[nH]c4ccccc34)CC2)CC1 (stereo not given),3.62% and 3.52%
17,C/C=C1\CN2CC[C@H]1C[C@@H]2[C@@H](O)c1ccnc2ccc(O)cc12,-0%
18,Cc1cc(C)c(CC(C)NCC(O)c2cccc(C(F)(F)F)c2)c(C)c1 (stereo not given),9.85%
19,Cc1nc(N)nc(N)c1-c1cccc(Cl)c1,2.24%
20,COC(=O)c1ccc(CC(C)NCC(O)c2cccc(C(F)(F)F)c2)cc1F (stereo not given),3.62%
21,Oc1ccccc1CNCC(O)c1cccc(C(F)(F)F)c1 (stereo not given),4.24%
22,OC(CNC1CCCCCC1)c1ccc(Cl)c(Cl)c1 (stereo not given),2.24%
23,O=C(NC1CCC(CN2CCC(c3c[nH]c4ccccc34)CC2)CC1)c1cn(Cc2ccccc2)c2ccccc12 (stereo not given),5.97%

row,SMILES,IFI
1,CN(C)c1cccc(NC(=O)NC2N=C(c3ccccc3)c3ccccc3N(CC(=O)N(C)c3ccccc3)C2=O)c1 (stereo not given),2.88%
2,COc1cc(C=CC(=O)NC2CCC(CN3CCC(c4c[nH]c5ccccc45)CC3)CC2)cc(OC)c1 (stereo not given),5.76%
3,CCCCCCc1cc(O)c2c3c(c(=O)oc2c1)CCN(C)C3,2.26%
4,CC(Cc1ccc(OCCCCOc2ccccc2)cc1)NCCCn1ccnc1 (stereo not given),32.6%
5,Cc1cc(NC(=O)[C@H](CC(C)C)Nc2ccc(C#N)c3ccccc23)ccc1F,7.48%
6,CN(c1cc(NC(=O)c2ccc(F)cc2)ccn1)C1CCN(Cc2cccc(O)c2)CC1,4.76%
7,O=C(Nc1ccc(Oc2ccccc2)cc1)N1CCC(CN2CCC(c3c[nH]c4ccccc34)CC2)CC1,6.47%
8,OC(CNCc1ccccc1OC(F)F)c1cccc(C(F)(F)F)c1 (stereo not given),2.34%
9,O=C(/C=C/c1ccc([N+](=O)[O-])cc1)NC1CCC(CN2CCC(c3c[nH]c4ccccc34)CC2)CC1 (stereo not given),3.62% and 2.94%
10,CC[C@H]1CN2CC[C@@H]1C[C@H]2[C@H](O)c1cc(N2CCC(O)CC2)nc2ccc(OC)cc12,-0%
11,CC(=O)Nc1ccc(CN2CCC(N(C)c3cc(NC(=O)c4ccc(F)cc4)ccn3)CC2)cc1,-0%
12,Cc1ccc(C)c(N2CCN(Cc3ccccc3O)CC2)c1,0.72%
13,O=C(NC1CCC(CN2CCC(c3c[nH]c4ccccc34)CC2)CC1)c1cc(-c2ccccc2)c(C(F)(F)F)s1 (stereo not given),6.8%
14,Cc1c2ccncc2c(C)c2c1[nH]c1ccccc12,7.3%
15,CCOC(C(=O)OCC1CCCN1C(C)C)(c1ccccc1)c1ccccc1 (stereo not given),-0%
16,Cc1csc(-c2ccc3[nH]cc(C4=CCN(C)CC4)c3c2)n1,-0%
17,O=C(c1ccccc1)C1CC1CN1CC=C(c2c[nH]c3ccccc23)CC1 (stereo not given),0.88%
18,CS(=O)(=O)Nc1ccc2[nH]cc(C3CCN(CC4CCN(C(=O)/C=C/c5ccc(Cl)c(Cl)c5)CC4)CC3)c2c1,2.19%
19,O=C(NC1CCC(CN2CCC(c3c[nH]c4ccccc34)CC2)CC1)c1cc2cccc([N+](=O)[O-])c2[nH]1 (stereo not given),3.65%
20,Cc1ccc2c(C3=CCN(CCCCC4(C)C(=O)Nc5ccccc54)CC3)c(C)[nH]c2c1 (stereo not given),2.19%
21,COc1cccc(C(=O)C2CC2CN2CC=C(c3c[nH]c4ccc(OC)nc34)CC2)c1 (stereo not given),5.56%
22,CC[C@H]1CN2CC[C@@H]1C[C@H]2[C@H](O)c1cc(-c2ccc(F)cc2)nc2ccc(O)cc12,4.41%
23,O=C(/C=C/c1ccc(Cl)cc1)NC1CCC(CN2CCC(c3c[nH]c4ccccc34)CC2)CC1 (stereo not given),4.23% and 5.63%

row,SMILES,IFI
1,COCCNCc1ccc(-c2ccc(CN(C(=O)NC3CCCCC3)C3CCN(Cc4ccccc4)CC3)cc2)cc1,7.52%
2,CCCC(=O)c1c(O)c2ccccc2oc1=O,0.72%
3,CSc1ccc(C[C@@H](C)NC[C@H](O)c2cccc(Cl)c2)cc1,5.04%
4,COc1ccc(CN(C2CC2)C(C)C(=O)c2[nH]c(C)c(C(C)=O)c2C)cc1 (stereo not given),12.5%
5,CC1CN=C(Nc2ncc(Cl)cc2Cl)N1 (stereo not given),0.7%
6,CCCCC/C=C/C(=O)NC1CCC(CN2CCC(c3c[nH]c4ccccc34)CC2)CC1 (stereo not given),3.52%
7,Cc1[nH]c2ccccc2c1C1=CCN(CCCCC2(C)C(=O)Nc3ccccc32)CC1 (stereo not given),2.17%
8,C=C[C@H]1CN2CC[C@H]1C[C@H]2[C@H](O)c1cc(/C=C/c2ccc(F)cc2)nc2ccc(OC)cc12,6.9%
9,Cc1[nH]c2ccc(O)cc2c1C1CCN(CC2CCC(NC(=O)/C=C/c3ccc(Cl)c(Cl)c3)CC2)CC1 (stereo not given),5.19%
10,Cc1[nH]c2ccccc2c1C1=CCN(CCCCC2(C)C(=O)Nc3cccc(F)c32)CC1 (stereo not given),3.68%
11,C[C@@H](CC1CCCCC1)NCc1ccccc1O,3.39%
12,CC(=O)Nc1ccc2[nH]cc(C3CCN(CC4CCC(NC(=O)/C=C/c5ccc(Cl)c(Cl)c5)CC4)CC3)c2c1 (stereo not given),2.82% and 2.9%
13,CC[C@H]1CN2CC[C@H]1C[C@@H]2[C@@H](O)c1cc(Cl)nc2ccc(OC)cc12,2.9%
14,CCCCCOc1ccc(CC(C)NCC(O)c2cccc(Cl)c2)cc1 (stereo not given),4.86%
15,COc1ccc(CCNCc2ccc3nc(N)c(C)cc3c2)cc1,2.96%
16,CC(C)(C)c1cc(/C=C/C(=O)NC2CCC(CN3CCC(c4c[nH]c5ccccc45)CC3)CC2)cc(C(C)(C)C)c1O (stereo not given),13.4%
17,CC(Cc1ccc([N+](=O)[O-])cc1)NCC(O)c1cccc(C(F)(F)F)c1 (stereo not given),3.73%
18,COc1ccc(CN2CCN(CCOC(c3ccccc3)c3ccccc3)CC2)c(O)c1,4.23%
19,Cc1ccc(C)c(C=CC(=O)NC2CCC(CN3CCC(c4c[nH]c5ccccc45)CC3)CC2)c1 (stereo not given),5.22% and 6.62%
20,CCCCOC(C(=O)OCC1CCCN1C)(c1ccccc1)c1ccccc1 (stereo not given),0.73%
21,Oc1cccc(C2CCCN(CCc3c[nH]c4ccccc34)C2)c1 (stereo not given),3.6%
22,CC[C@H]1CN2CC[C@@H]1C[C@H]2[C@H](O)c1cc[n+]([O-])c2ccc(OC)cc12,-0%
23,CC[C@H]1CN2CC[C@@H]1C[C@H]2[C@H](O)c1cc(N2CCC(O)(c3ccc(Cl)cc3)CC2)nc2ccc(OC)cc12,10.3%

row,SMILES,IFI
1,CC(C)CCNC(=O)c1cc(C(=O)c2cc(F)ccc2O)cn(CCC(C)C)c1=O,0.86%
2,CCCCCc1cc(O)c2c(c1)OC(C)(C)CC2C1=CCN(Cc2cccnc2)CC1 (stereo not given),2.16%
3,O=C(/C=C/c1ccc(Cl)cc1Cl)NC1CCC(CN2CCC(c3c[nH]c4ccccc34)CC2)CC1 (stereo not given),9.09%
4,CC(Cc1ccc(OCCCCOc2ccccc2)cc1)NCCCc1nc2ccccc2[nH]1 (stereo not given),33.3%
5,CC(C)CNCc1cccc(-c2ccccc2CN(C(=O)Nc2ccccc2)C2CCN(Cc3ccccc3)CC2)c1,7.91%
6,CC[C@H]1CN2CC[C@H]1C[C@H]2[C@H](O)c1cc(-c2ccccc2C)nc2ccc(OC)cc12,5.44%
7,CC(Cc1ccc(NC(=O)[C@H](C)NCCc2cccc(Cl)c2)cc1)NCCc1cccc(Cl)c1 (stereo not given in full),9.35%
8,CC[C@H]1CN2CC[C@@H]1C[C@H]2[C@H](O)c1cc(N2CCC(C)CC2)nc2ccc(OC)cc12,5.07%
9,O=C(Nc1cc(C(F)(F)F)cc(C(F)(F)F)c1)c1cc(Cl)ccc1O,33.3%
10,CN1CCC(N(C)c2nccc(N3CCN(Cc4cncn4Cc4ccccc4)CC3)n2)CC1,-0%
11,C#CCN1CCC2=C(C1)c1c(O)cc(C(C)CCCc3ccc(F)cc3)cc1OC2(C)C (stereo not given),1.41%
12,O=C(C=C1c2ccccc2-c2ccccc21)NC1CCC(CN2CCC(c3c[nH]c4ccccc34)CC2)CC1 (stereo not given),2.99% and 5.15%
13,CCCCCCCSc1ccc(CC(C)NCC(O)c2cccc(Cl)c2)cc1 (stereo not given),9.93%
14,O=C(/C=C/c1cccs1)NC1CCC(CN2CCC(c3c[nH]c4ccccc34)CC2)CC1 (stereo not given),6.25%
15,Cc1[nH]c2cc(Cl)ccc2c1C1=CCN(CCCCC2(C)C(=O)Nc3ccccc32)CC1 (stereo not given),2.38%
16,COc1ccc(C[C@@H](C)NC[C@H](O)c2cccc(Cl)c2)cc1F,1.44% and 3.65%
17,COC(=O)c1ccc(CC(C)NCC(O)c2cccc(Cl)c2Cl)cc1 (stereo not given),3.62%
18,CC(C)CNCc1cccc(-c2cccc(CN(C(=O)c3cccs3)C3CCN(Cc4ccccc4)CC3)c2)c1,9.86%
19,Oc1cc2c(cc1CN1CCN(Cc3ccccc3)CC1)CCC2,1.52%
20,CN(C)CCCn1cc(C(=O)OC2CC3CCC(C2)N3C)c2cc(-c3ccccc3)ccc21 (stereo not given),9.79%
21,CCOc1ccc(-c2nc3cc(-c4nc5cc(N6CCN(C)CC6)ccc5[nH]4)ccc3[nH]2)cc1,4.41%
